# Reference: the BET-seq Pho4 binding data (Le et al. 2018)
# The list shows a part of the results. These are noisy estimates, calculated here from bound and input reads.
# Molecular target: T1, Pho4 (S. cerevisiae) (UniProt P07270)
# T1 sequence: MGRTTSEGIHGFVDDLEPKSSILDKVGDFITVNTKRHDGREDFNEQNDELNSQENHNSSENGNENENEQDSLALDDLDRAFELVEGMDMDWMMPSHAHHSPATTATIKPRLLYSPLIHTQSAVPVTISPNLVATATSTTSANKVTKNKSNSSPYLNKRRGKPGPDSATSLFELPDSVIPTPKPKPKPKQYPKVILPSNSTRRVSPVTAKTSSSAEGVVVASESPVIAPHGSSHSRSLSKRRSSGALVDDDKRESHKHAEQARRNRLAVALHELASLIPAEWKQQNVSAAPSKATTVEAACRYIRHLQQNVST
# Assay: relative binding free energy (BET-seq); higher = weaker binding
# Details: reference: library average
row,Sequence,relative binding free energy [kcal/mol]
1,GTAGTCACGTGGCGGC,0.18
2,TGTAACACGTGGGAAT,0.09
3,TTCATCACGTGATTTT,0.17
4,AGTATCACGTGAGTGT,0.22
5,GGTAACACGTGATGTG,0.27
6,GAATTCACGTGTGTTG,0.18
7,TATGTCACGTGTAGGG,0.22
8,CGGATCACGTGACGGG,0.49
9,TTTTTCACGTGGTCTT,0.24
10,GGTAACACGTGACGTG,0.33
11,TGGAGCACGTGGACTG,-0.04
12,GGTGCCACGTGGGATG,-0.12
13,TGTGCCACGTGAGGTG,0.13
14,CGAGGCACGTGGTTTA,-0.15
15,AGTGACACGTGTTATC,0.06
16,ATGTACACGTGGTGCA,-0.02
17,GGCTACACGTGTGTGG,0.07
18,CGTGGCACGTGAGTTA,0.08
19,GTTGGCACGTGTTCAC,0.08
20,TGAATCACGTGTCGGG,0.13
21,TGACTCACGTGTTTGT,0.16
22,GATGTCACGTGTTGGA,0.07
23,AGGAGCACGTGACTGG,0
24,GTTGACACGTGTAAAG,0.13
25,GTGCCCACGTGGGGGG,-0.25
26,TTGATCACGTGAATGA,0.52

row,Sequence,relative binding free energy [kcal/mol]
1,GGGTGCACGTGAGGTA,0.13
2,TTGTGCACGTGCGATA,-0.14
3,TAATGCACGTGCGTGG,-0.21
4,GGGTTCACGTGAGATT,0.49
5,GATTACACGTGTGCTT,0.1
6,TGTCTCACGTGGGTGG,0.06
7,ACGGGCACGTGGGTTG,-0.28
8,AGTAGCACGTGATCTG,0.02
9,CAGGTCACGTGTTAGA,0.12
10,TTTTTCACGTGTCAGC,0.36
11,TTTGGCACGTGGAACT,0.08
12,GCAAACACGTGTGGTT,0.12
13,GTGGTCACGTGGAAGG,0.15
14,GGAATCACGTGTTGTG,0.15
15,AATGCCACGTGTGGTT,0.03
16,TAGTACACGTGCTGTT,0
17,TTTTTCACGTGATGTA,0.34
18,TGTTTCACGTGAAGGC,0.31
19,TCTTTCACGTGCGAGG,0.36
20,CTAGGCACGTGGTGCG,-0.28
21,TGTTTCACGTGGGCGA,0.16
22,ATTGTCACGTGGATAA,0.19
23,TATTGCACGTGACTGG,0
24,TATAACACGTGAGGCG,0.26
25,GTCAGCACGTGTGTAT,-0.01
26,CGTGACACGTGTCGGG,-0.1

row,Sequence,relative binding free energy [kcal/mol]
1,TGTAACACGTGGTGGC,-0.11
2,GGTCTCACGTGTGCGT,0.2
3,GGAATCACGTGAGTGT,0.4
4,GCGTACACGTGATTGG,0.26
5,CGATTCACGTGTGATG,0.29
6,GTAGTCACGTGCTGAT,0.06
7,GGTGCCACGTGTTGGC,0
8,GGTATCACGTGTGAAT,0.29
9,GTGCACACGTGGGGTA,-0.14
10,TGGGTCACGTGCTTTT,0.03
11,TTAAGCACGTGTATGG,0.02
12,GTTGACACGTGTATGA,0.07
13,TTTGACACGTGTTTAC,0.16
14,TGGGGCACGTGTGCGA,-0.22
15,TGTGTCACGTGGTCTA,0.08
16,GCTTACACGTGTGTTG,0.19
17,TTATACACGTGATTTT,0.28
18,TTGCTCACGTGGGTGC,0.03
19,TTCTTCACGTGTGGGC,0.21
20,ATAGACACGTGTTTAT,0.19
21,AGTTGCACGTGGGTAA,-0.13
22,GGGGGCACGTGGGTCC,-0.17
23,TTCAACACGTGGTGTG,-0.05
24,GGGCTCACGTGGGGGG,0.06
25,TTCTGCACGTGTTTGC,0.04
26,TTGAGCACGTGTGAGT,-0.03

row,Sequence,relative binding free energy [kcal/mol]
1,TATTACACGTGAGTGC,0.29
2,TTCTTCACGTGACGTT,0.42
3,GGTTACACGTGTCATA,0.09
4,TGGTTCACGTGTTGCC,0.24
5,ATATGCACGTGGGAGA,-0.15
6,TTCGTCACGTGTTAGA,0.12
7,AGGGGCACGTGCATGT,-0.24
8,GGCTGCACGTGGGAGG,-0.06
9,TTGTTCACGTGTCATG,0.33
10,GGCGACACGTGAGTTT,0.34
11,GAGGGCACGTGCTGGC,0.02
12,ATGGTCACGTGCGAAG,0.29
13,TATTTCACGTGGCCGG,0.16
14,GTTGGCACGTGACGTG,0.21
15,TAGGTCACGTGGTTTC,0.12
16,TGACTCACGTGTTTAA,0.33
17,CATGACACGTGGTTTG,-0.05
18,AGTGTCACGTGTATGT,0.01
19,GTAGTCACGTGTATAA,0.14
20,CTGAGCACGTGGATGG,-0.09
21,TGTGTCACGTGTGCGC,0.09
22,TATCGCACGTGGTGCG,-0.1
23,GGTCTCACGTGGGAGT,0.12
24,TTTGGCACGTGCCTTT,-0.11
25,GAGTGCACGTGCGGGT,-0.08
26,AGTGTCACGTGTAACG,0.12

row,Sequence,relative binding free energy [kcal/mol]
1,AGTGACACGTGGCGTT,-0.09
2,TTATTCACGTGTGGAG,0.33
3,GTAGACACGTGGGCGA,0.03
4,CGGTTCACGTGGAATG,0.23
5,TCGGACACGTGGAGGG,0.12
6,GTTAGCACGTGAATTA,0.33
7,TAGGTCACGTGAGGGC,0.34
8,ATTTTCACGTGTGATC,0.42
9,ACTGTCACGTGTGTCG,0.11
10,AATTCCACGTGGGGGT,-0.14
11,GTTGTCACGTGTAGGC,0.25
12,TACTTCACGTGGGTGG,0.17
13,CACGTCACGTGTGGTG,0.17
14,AATGACACGTGCTGGT,-0.09
15,TGAGACACGTGTTCTG,-0.02
16,ATTTTCACGTGAGGAG,0.37
17,TGGTTCACGTGGACCG,0.26
18,AGAAGCACGTGTTAGT,-0.1
19,CGTGTCACGTGTTTTA,-0.1
20,GAGGGCACGTGTGTTG,-0.03
21,TTTATCACGTGGGAAT,0.13
22,GGATGCACGTGAGATT,0.28
23,AGGGGCACGTGGAAGT,-0.06
24,ATAGGCACGTGTAAAT,0.05
25,GAAGTCACGTGGATAG,0.28
26,GGGTTCACGTGCGAAA,0.34

row,Sequence,relative binding free energy [kcal/mol]
1,TGAGGCACGTGCTCGG,-0.18
2,AGCGCCACGTGAGGTG,0.21
3,AACGTCACGTGGGTTC,0.09
4,TAGCGCACGTGAAGGT,0.16
5,AAAGTCACGTGATTTG,0.31
6,TTTCGCACGTGCAAGG,0.05
7,AATCTCACGTGGGAGT,0.37
8,AGCTGCACGTGGGTTA,-0.07
9,CTGTTCACGTGAAGTT,0.27
10,TCTGACACGTGGAGGG,0
11,GGTAGCACGTGCTTAG,-0.08
12,GTGTTCACGTGGTTTA,0.3
13,CTTCACACGTGGGGGG,0.01
14,ATTGTCACGTGGCAGC,0.12
15,GGGTGCACGTGTTAGA,0.03
16,TATTTCACGTGCGCAT,0.26
17,CTGGACACGTGGGTTA,-0.05
18,ATGGTCACGTGAAATA,0.29
19,TTGATCACGTGGATTT,0.22
20,CGGAGCACGTGTGTGG,-0.01
21,TGGGTCACGTGGGTCG,0.01
22,CGTAGCACGTGTGGGG,-0.06
23,GGAGACACGTGTGAGT,0.13
24,CGTAGCACGTGGGCAG,-0.18
25,GGTTTCACGTGTCGTC,0.37
26,TAATTCACGTGTGGAG,0.32

row,Sequence,relative binding free energy [kcal/mol]
1,TGCATCACGTGTGGTC,0.27
2,TATAGCACGTGGACGG,-0.17
3,AATGTCACGTGGGTAT,0.1
4,TATTTCACGTGATATG,0.32
5,ATTCTCACGTGTGTCT,0.24
6,ATTTGCACGTGTGCTA,0.01
7,GGTAGCACGTGTGAGG,-0.02
8,TAGGCCACGTGATGTG,0.08
9,CTGTTCACGTGTTATT,0.17
10,GATAGCACGTGGGGAG,0.05
11,AATTGCACGTGATCGT,-0.06
12,TCTTTCACGTGATATT,0.35
13,TTGTGCACGTGAATGG,0.23
14,CCGCGCACGTGGGGGG,-0.32
15,AGTCCCACGTGTTTGT,0.08
16,AGGCTCACGTGGGTGA,0.05
17,GTATGCACGTGCGTAT,-0.01
18,GACTGCACGTGGGGAG,-0.01
19,ATGATCACGTGCCGGT,0.22
20,TGTGCCACGTGCGGGA,-0.15
21,GAGTACACGTGCGGGG,0.14
22,TTCAACACGTGGTGGT,-0.1
23,TCATGCACGTGGGAGG,-0.12
24,AAGGGCACGTGTGCTT,-0.11
25,GCTTGCACGTGCAGGT,0.13
26,GGGTTCACGTGGCTGG,0.29

row,Sequence,relative binding free energy [kcal/mol]
1,ACGTGCACGTGGTGCT,-0.13
2,TGTTACACGTGGATAT,0.06
3,AGGTACACGTGGGGAC,0.01
4,TTGTACACGTGGACGT,0.02
5,TTATGCACGTGTGGGG,-0.02
6,TCTTTCACGTGGTAAT,0.2
7,AGTACCACGTGAGGTG,0.14
8,GAGGTCACGTGGTTAG,0.07
9,AGATTCACGTGGCTTT,0.29
10,CGGGTCACGTGTTGCG,0.27
11,TGTAGCACGTGGGGAA,-0.09
12,ACTCGCACGTGAGTGG,0.18
13,CTATTCACGTGAGTAT,0.47
14,TTGAGCACGTGGAATA,0.02
15,GGGGCCACGTGGGAAG,-0.32
16,TACTACACGTGGGGGG,-0.07
17,TCGGGCACGTGAAGGT,0.22
18,TGGAGCACGTGGGTTT,-0.04
19,AAGTTCACGTGACTGT,0.42
20,ATTAACACGTGTTGCT,-0.13
21,GGATACACGTGTTCGT,0.04
22,GGTTGCACGTGTGAGT,0.11
23,TCCGTCACGTGGTAGG,0.01
24,GGATGCACGTGAAGTG,0.19
25,AAACGCACGTGAGGTT,0.24
26,ATGTTCACGTGGCAAG,0.16

row,Sequence,relative binding free energy [kcal/mol]
1,GACATCACGTGTTTTT,0.24
2,TTAGACACGTGGCTAG,0.1
3,TGGGTCACGTGGGGAC,0.07
4,GGTATCACGTGAAGTG,0.24
5,ATAGGCACGTGGATCG,-0.05
6,GGCTTCACGTGGTTTG,0.37
7,TATGGCACGTGTCAGA,-0.03
8,AATTTCACGTGGGTAG,-0.01
9,TTTATCACGTGAATCG,0.4
10,ACCGGCACGTGTGTGG,-0.09
11,GGGTACACGTGATATA,0.11
12,TAGGTCACGTGGAACT,0.19
13,GCAGGCACGTGTTGCG,-0.05
14,TTGTACACGTGGAATG,0.08
15,ATCTGCACGTGGGATA,-0.1
16,TCTGGCACGTGTCGTT,-0.12
17,CTATACACGTGTGTTG,-0.1
18,TGTGGCACGTGTCCTG,-0.18
19,AGTAACACGTGTGTTG,0.04
20,ATAGGCACGTGACGGG,-0.02
21,GTTATCACGTGAGGGG,0.33
22,GAGCGCACGTGGGGGT,-0.27
